# Assay results published in US20110064751A1 (Hoffmann-La Roche, published 2011).
# T1: murine chimeric TNC A2 fusion protein (TNC fn5-A1-A2-A3 domains, A1 and A2 murine) (human; murine, UniProt P24821 984-1071; Q80YX1 1072-1253; P24821 1254-1344, limits assumed, biotinylated)
# T1 construct: domain: fn5;domain: A1-A2;domain: A3; Expressed in E. coli, immobilized on a streptavidin chip; also called Murine TNC
# T1 sequence (looked up): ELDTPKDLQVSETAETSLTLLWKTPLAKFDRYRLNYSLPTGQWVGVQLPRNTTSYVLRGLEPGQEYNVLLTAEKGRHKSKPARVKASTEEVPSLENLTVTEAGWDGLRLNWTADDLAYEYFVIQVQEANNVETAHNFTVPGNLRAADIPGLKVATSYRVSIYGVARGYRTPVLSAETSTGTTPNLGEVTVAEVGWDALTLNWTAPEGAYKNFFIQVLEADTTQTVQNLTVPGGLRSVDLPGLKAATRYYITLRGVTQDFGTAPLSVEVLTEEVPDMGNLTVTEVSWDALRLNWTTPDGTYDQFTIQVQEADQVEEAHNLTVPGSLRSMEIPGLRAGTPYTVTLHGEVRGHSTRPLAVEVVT
# T2: human chimeric TNC A2 fusion protein (TNC fn5-A1-A2-A3 domains, A1 and A2 human) (human, UniProt P24821 984-1344, limits assumed, biotinylated)
# T2 construct: domain: fn5-A1-A2-A3; Immobilized on a streptavidin chip; also called Human TNC
# T2 sequence (looked up): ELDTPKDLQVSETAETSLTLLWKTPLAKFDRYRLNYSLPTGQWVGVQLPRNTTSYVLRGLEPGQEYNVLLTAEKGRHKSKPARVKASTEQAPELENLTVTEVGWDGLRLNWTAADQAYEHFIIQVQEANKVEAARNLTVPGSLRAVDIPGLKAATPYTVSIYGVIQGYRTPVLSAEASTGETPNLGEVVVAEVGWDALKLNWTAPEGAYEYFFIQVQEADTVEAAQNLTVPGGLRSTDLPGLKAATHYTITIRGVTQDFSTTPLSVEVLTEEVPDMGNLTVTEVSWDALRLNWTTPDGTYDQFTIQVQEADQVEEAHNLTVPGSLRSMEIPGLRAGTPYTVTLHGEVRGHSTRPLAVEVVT
# T3: IL-2 receptor (IL-2R) β/γ heterodimer on effector cells (NK92 cells; human PBMC subsets) (UniProt P14784 27-551; P31785 23-369)
# T3 sequence (looked up) 1: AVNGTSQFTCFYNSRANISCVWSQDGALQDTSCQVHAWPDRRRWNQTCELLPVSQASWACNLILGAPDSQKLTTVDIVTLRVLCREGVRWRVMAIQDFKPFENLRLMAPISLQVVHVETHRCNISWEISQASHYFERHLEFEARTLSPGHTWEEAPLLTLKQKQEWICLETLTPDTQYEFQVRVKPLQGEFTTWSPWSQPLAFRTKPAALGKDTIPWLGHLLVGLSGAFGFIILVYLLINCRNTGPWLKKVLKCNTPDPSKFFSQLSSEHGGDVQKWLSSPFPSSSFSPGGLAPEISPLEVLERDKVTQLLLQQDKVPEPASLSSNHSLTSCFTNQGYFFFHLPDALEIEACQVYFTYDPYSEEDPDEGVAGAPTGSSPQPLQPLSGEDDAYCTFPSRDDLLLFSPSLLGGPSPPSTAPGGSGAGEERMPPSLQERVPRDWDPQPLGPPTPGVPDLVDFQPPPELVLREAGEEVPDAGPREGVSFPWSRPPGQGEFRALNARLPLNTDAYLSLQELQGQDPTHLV
# T3 sequence (looked up) 2: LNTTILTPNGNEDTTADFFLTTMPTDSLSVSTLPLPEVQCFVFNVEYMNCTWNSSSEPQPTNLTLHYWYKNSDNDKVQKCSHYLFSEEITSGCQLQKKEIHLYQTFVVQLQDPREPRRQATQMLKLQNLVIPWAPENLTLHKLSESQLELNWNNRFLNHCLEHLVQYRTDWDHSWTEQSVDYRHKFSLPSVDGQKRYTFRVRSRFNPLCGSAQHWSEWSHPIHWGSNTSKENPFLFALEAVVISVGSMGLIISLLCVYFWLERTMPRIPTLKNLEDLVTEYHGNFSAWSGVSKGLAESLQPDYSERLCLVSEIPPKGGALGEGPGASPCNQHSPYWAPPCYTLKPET
# B1: 2B10 Fab-IL2-Fab immunoconjugate (other)
# chain: QVQLVQSGAEVKKPGSSVKVSCKASGGTFSSYAISWVRQAPGQGLEWMGGIIPIFGTANYAQKFQGRVTITADKSTSTAYMELSSLRSEDTAVYYCARLYGYAYYGAFDYWGQGTTVTVSSASTKGPSVFPLAPSSKSTSGGTAALGCLVKDYFPEPVTVSWNSGALTSGVHTFPAVLQSSGLYSLSSVVTVPSSSLGTQTYICNVNHKPSNTKVDKKVEPKSCDSGGGGSGGGGSGGGG[sequence of about 150 residues omitted]SGGGGSGGGGSGGGGQVQLVQSGAEVKKPGSSVKVSCKASGGTFSSYAISWVRQAPGQGLEWMGGIIPIFGTANYAQKFQGRVTITADKSTSTAYMELSSLRSEDTAVYYCARLYGYAYYGAFDYWGQGTTVTVSSASTKGPSVFPLAPSSKSTSGGTAALGCLVKDYFPEPVTVSWNSGALTSGVHTFPAVLQSSGLYSLSSVVTVPSSSLGTQTYICNVNHKPSNTKVDKKVEPKSCD
# light: DIQMTQSPSSLSASVGDRVTITCRASQGIRNDLGWYQQKPGKAPKRLIYAASSLQSGVPSRFSGSGSGTEFTLTISSLQPEDFATYYCLQNGLQPATFGQGTKVEIKRTVAAPSVFIFPPSDEQLKSGTASVVCLLNNFYPREAKVQWKVDNALQSGNSQESVTEQDSKDSTYSLSSTLTLSKADYEKHKVYACEVTHQGLSSPVTKSFNRGEC
# notes: also called Fab-IL2-Fab 2B10; SH2B10
# How the values were obtained:
# [1] = biological target: T4, heterodimeric human IL-2 receptor beta/gamma Fc fusion (knob-into-hole construct) (human); experiment: SPR (Biacore), receptor immobilized, construct as analyte
# T4 construct: also called IL-2R b/g; hu IL-2R bg
# [2] = biological target: T1, murine chimeric TNC A2 fusion protein …; experiment: SPR (Biacore), biotinylated antigen on streptavidin chip, construct as analyte, avidity, 1:1 fit
# [3] = biological target: T2, human chimeric TNC A2 fusion protein …; experiment: as above
# [4] = biological target: T5, Cynomolgus chimeric TNC A2 fusion protein (TNC fn5-A1-A2-A3 domains, A1 and A2 cynomolgus) (human; cynomolgus, UniProt P24821 984-1071; P24821 1254-1344, biotinylated); experiment: as above
# T5 construct: domain: fn5;domain: A1-A2;domain: A3; Expressed in E. coli, immobilized on a streptavidin chip; also called Cynomolgus TNC
# [5] = biological target: T3, IL-2 receptor (IL-2R) β/γ heterodimer …; experiment: cell-based or functional assay
binder,measurement,setting,value
B1,Kd,[1],2.7 nM
same,Kd,[2],0.77 nM
same,Kd,[3],0.12 nM
same,Kd,[4],0.12 nM
same,"IFN-γ release of NK92 cells, construct in solution",[5],"≥ 10 fold, against IL-2 (Proleukin)"
same,"induction of proliferation of NK92 cells (CellTiter Glo), construct bound to coated antigen",[5],"≥ 10 fold, against IL-2 (Proleukin)"
